Results on 14 molecules are retold here after PMC12136788.

The labels stand for the following.
T1: UNK ZnF1-3 (human, UniProt Q9C0B0 31-174)
T1 sequence: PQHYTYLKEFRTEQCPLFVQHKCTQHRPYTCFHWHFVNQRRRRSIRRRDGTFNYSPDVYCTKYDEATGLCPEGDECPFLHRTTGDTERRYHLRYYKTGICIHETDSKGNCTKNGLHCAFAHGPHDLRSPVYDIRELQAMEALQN

B1: chr16:57506169:57506170:-_ENSG00000125170_ENST00000340099|hu_hu|motif|central (ssRNA)
RNA: GGGAGUUCUACAGUCCGACGAUCGCCACAACUCAAAUAGUGGUUAUUUACAAGAAGGUCUGUUCCCACAAAUCAGGACCCGGAAGUAUUAAAAAACAAAACCCAAAAAACAACAAAAAACCCCACACAACCAAAAGUUUGACGCAACAGAGGAUUGAGCAUCA
B2: chr11:5855929:5855930:+_ENSMUSG00000002741_ENSMUST00000002818|mus_mus|motif|central (ssRNA)
RNA: GGGAGUUCUACAGUCCGACGAUCACACGUCGUACGCGGCCUUGAGCAGCACCGCUUUCGGAUCGCCUUUGUAAAGGACACGGAGGCUGUACAGCUUCAUGGCGCCGCACCUUCGGGCCGCCGGCUGAGCCCCAGACCCGCUCCCAACAGAGGAUUGAGCAUCA
B3: chr9:75414013:75414014:-_ENSMUSG00000032186_ENSMUST00000064433|mus_hu|FALSE|FALSE (ssRNA)
RNA: GGGAGUUCUACAGUCCGACGAUCCUGGUAAAAUGUUACAGAUUAGUGGCAUGCAGGUAUUUUACAUUUUUAAGUGCAAUGAAAAAUGCUGCUUAUUCAUUUUGCUUGAAUGGAUGAAAACAACUAAAAUAAAUGCUUAAUUAACAACAGAGGAUUGAGCAUCA
B4: chr1:60039268:60039269:+_ENSMUSG00000041040_ENSMUST00000036540|mus_mus|FALSE|FALSE (ssRNA)
RNA: GGGAGUUCUACAGUCCGACGAUCCUGACCACACGAUGAAGUGUGAACAGGAAUAGUGCAGAAAACAGCAGUUUACAAAUACUUCACUCAAAUCACAAACUGUUGACAUCAAAAAAACAUAAAUCACAUAAUGUACAAAUAUUGCAACAGAGGAUUGAGCAUCA
B5: chr12:493273:493274:-_ENSG00000073614_ENST00000399788|hu_mus|hu_hu_hu_mus_False|58_88 (ssRNA)
RNA: GGGAGUUCUACAGUCCGACGAUCUUUUCUCUCCACCACAGGGAUCUUCAGAGUAGAUCCUUGAAGUUCCCAAAAUUUUGCUAGUUGAUCCAAGAAGUCCAAUCUUACUCUAGUCAUUGCCUCAAGUUCAUUCAGGCGCUGGACCAACAGAGGAUUGAGCAUCA
B6: chr16:94664741:94664742:+_ENSMUSG00000040785_ENSMUST00000117648|mus_hu|mus_mus_mus_hu_False|38_88 (ssRNA)
RNA: GGGAGUUCUACAGUCCGACGAUCUGGUACUGAUCUUGGUAGCUGAUACUCAGAAGAAAGGCUGGCCAAGGGUGUAUAUAUGCUGGUGUACUGGGGCAGGCUAGGUAACACGUUUAUGUAUGCUGGCGGUGUCUGGGUGAUAUCCAACAGAGGAUUGAGCAUCA
B7: chr1:39494564:39494565:+_ENSG00000168653_ENST00000372967|hu_hu|hu_hu_hu_mus_True|28_48 (ssRNA)
RNA: GGGAGUUCUACAGUCCGACGAUCAUGCAUUCGCCUCAUCGUUUUGUACCGAAGCAAGCACUCUUCGAAGUCAUCGAACUCUAUCUUGCACUCUUUCUUCGCCCGGGUAUAACCGAUCCCGUGUGCACACUCUAUCCACUCUUUCAACAGAGGAUUGAGCAUCA
B8: 135593560_135593680_1890_CDS_ENSG00000102241_ENST00000218364|human|control|control (ssRNA)
RNA: GGGAGUUCUACAGUCCGACGAUCUAACUCUUUGUCAAGAACAUUUUCAUGAAGCUCCUUUUCAGAACCUUCCUCGUCCAAAUCUUUCUCGAGACCAUUUUCUUCAAAUUCUCUUUCGGAGCCAUCUUCAGACUGUUUUUCAGACAACAGAGGAUUGAGCAUCA
B9: chr14:90871081:90871082:+_ENSG00000198668_ENST00000553542|hu_hu|FALSE|FALSE (ssRNA)
RNA: GGGAGUUCUACAGUCCGACGAUCUCUUUUUUUUGCAAGAGGUAAGUAAAAGAUUCAAUUUGAUUCUUCUAGAGGGGGGAAAAAGGAGUUGAAAGUAGGUCUUCAUUUUGCAGUCAUCAUCUGUACGAAUUCUUCAUAGUUGACCAACAGAGGAUUGAGCAUCA
B10: 70339416_70339877_200_CDS_ENSMUSG00000018286_ENSMUST00000018430|mouse|control|control (ssRNA)
RNA: GGGAGUUCUACAGUCCGACGAUCAGCGGCUGAGCCUGAGCGGCAGCAGAAGAUGUGAUCGUGGAUAGGGGUCAGCUUGUCAGUCACUCGAUUGGCGAUGUAGGACCCAGUGGUUGUCCUGGAGUCCGCUCCUAGAACCACGCCCAACAGAGGAUUGAGCAUCA
B11: chr5:145543945:145543946:-_ENSG00000133706_ENST00000545646|hu_hu|hu_hu_hu_mus_True|78_78 (ssRNA)
RNA: GGGAGUUCUACAGUCCGACGAUCCUGAACGGCCAGUGGUGGGAAAUAAUCAAGCCAAUGUUCUGCUUCAGAAAACUUCACUAUGUCGUCAUCAGAGAGCCCAAGGGAUUUCAUAAUGUCCCACUGGUACUUAGAAGAUCCUGCCAACAGAGGAUUGAGCAUCA
B12: chr14:89307221:89307222:+_ENSG00000165533_ENST00000346301|hu_mus|hu_hu_hu_mus_False|18_88 (ssRNA)
RNA: GGGAGUUCUACAGUCCGACGAUCUCCUGUUUGGUUAGUGCCAGGGAGUUUCAAAGAUGUGCCAGGGCGUGGGACCUGAGCAAUAGCAUUUUCAUCCAGGAUCAUUUCAGCAAUUCCUUCCUGAUCUACAUCAAUUUCAUCUAUCAACAGAGGAUUGAGCAUCA
B13: chr1:66829163:66829164:+_ENSG00000184588_ENST00000423207|hu_mus|motif|central (ssRNA)
RNA: GGGAGUUCUACAGUCCGACGAUCCACGUCAGCAGCAUGCAGGCUGUUGUGAUAUGCCACAUCAGAAUGGUAAUGGUCUUCGGAAGUCAUCAUGUAGGUUACAAAGGUGUCAGAUGAGAUUUUAAACGUCUUCAGAAGGUCUCUCAACAGAGGAUUGAGCAUCA
B14: 110435137_110447804_97_CDS_ENSMUSG00000044791_ENSMUST00000153838|mouse|control|control (ssRNA)
RNA: GGGAGUUCUACAGUCCGACGAUCUUCAGGGGUCGGGUGCUCGGGAUCGUAGAAAUCCCCCAUCUUCGGUGGCGGCUGCUGCGACGGCAGCGGCUUCAUGAGGAGCGGCUGGAGGCGGCGACGCUAGCCCCCUCCCCGCGGCAGCAACAGAGGAUUGAGCAUCA

The other results are listed elsewhere or left out.

The assay deals with T1, UNK ZnF1-3. As to the kind of experiment: nsRBNS (natural sequence RNA bind-n-seq); RBNS binding buffer (assumed for nsRBNS): 25 mM Tris pH 7.5, 150 mM KCl, 3 mM MgCl2, 0.01% Triton X-100, 500 ug/ml BSA, 20 U/ml SUPERase-In, 4 C; UNK is unkempt and MSI1 is Musashi-1; names of the RNAs are library labels; protein concentration not given here; high values mean tight binding.
Consider B1, for which the binding signal amounted to 2.81 enrichment R.

For B2, the binding signal stood at 0.663 enrichment R.

B3 registered a binding signal of 1.03 enrichment R.

B4: the binding signal was 1.36 enrichment R.

Take B5: the binding signal came to 0.931 enrichment R.

The molecule B6 registered a binding signal of 1.25 enrichment R.

Molecule B7 had a binding signal of 0.68 enrichment R.

Regarding B8, the binding signal turned out to be 0.476 enrichment R.

B9: the binding signal is 1.23 enrichment R.

B10 came in with a binding signal of 1.03 enrichment R.

Molecule B11 yielded a binding signal of 1.28 enrichment R.

In turn, B12 came in with a binding signal of 0.834 enrichment R.

B13 displayed a binding signal of 0.855 enrichment R.

Take B14: the binding signal was determined as 0.923 enrichment R.
